The source of these data is publication PMC4336329 (PLoS ONE, 2015).

SMILES strings stand for the structures. Among all 310,000 compounds or so, about 14,000 (4.5%) showed an effect of 50% or more. The effect is printed as a negative number. The list shows a part of the results.
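Note: peak tail current of the secondary pulse compared with the same well before compound.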

In this test the target is human ether-à-go-go-related gene (hERG) potassium channel (human, UniProt Q12809). Nature of the test: primary screen, population patch clamp on CHO cells stably expressing hERG.
human ether-à-go-go-related gene (hERG) potassium channel, sequence (Q12809 whole entry, looked up): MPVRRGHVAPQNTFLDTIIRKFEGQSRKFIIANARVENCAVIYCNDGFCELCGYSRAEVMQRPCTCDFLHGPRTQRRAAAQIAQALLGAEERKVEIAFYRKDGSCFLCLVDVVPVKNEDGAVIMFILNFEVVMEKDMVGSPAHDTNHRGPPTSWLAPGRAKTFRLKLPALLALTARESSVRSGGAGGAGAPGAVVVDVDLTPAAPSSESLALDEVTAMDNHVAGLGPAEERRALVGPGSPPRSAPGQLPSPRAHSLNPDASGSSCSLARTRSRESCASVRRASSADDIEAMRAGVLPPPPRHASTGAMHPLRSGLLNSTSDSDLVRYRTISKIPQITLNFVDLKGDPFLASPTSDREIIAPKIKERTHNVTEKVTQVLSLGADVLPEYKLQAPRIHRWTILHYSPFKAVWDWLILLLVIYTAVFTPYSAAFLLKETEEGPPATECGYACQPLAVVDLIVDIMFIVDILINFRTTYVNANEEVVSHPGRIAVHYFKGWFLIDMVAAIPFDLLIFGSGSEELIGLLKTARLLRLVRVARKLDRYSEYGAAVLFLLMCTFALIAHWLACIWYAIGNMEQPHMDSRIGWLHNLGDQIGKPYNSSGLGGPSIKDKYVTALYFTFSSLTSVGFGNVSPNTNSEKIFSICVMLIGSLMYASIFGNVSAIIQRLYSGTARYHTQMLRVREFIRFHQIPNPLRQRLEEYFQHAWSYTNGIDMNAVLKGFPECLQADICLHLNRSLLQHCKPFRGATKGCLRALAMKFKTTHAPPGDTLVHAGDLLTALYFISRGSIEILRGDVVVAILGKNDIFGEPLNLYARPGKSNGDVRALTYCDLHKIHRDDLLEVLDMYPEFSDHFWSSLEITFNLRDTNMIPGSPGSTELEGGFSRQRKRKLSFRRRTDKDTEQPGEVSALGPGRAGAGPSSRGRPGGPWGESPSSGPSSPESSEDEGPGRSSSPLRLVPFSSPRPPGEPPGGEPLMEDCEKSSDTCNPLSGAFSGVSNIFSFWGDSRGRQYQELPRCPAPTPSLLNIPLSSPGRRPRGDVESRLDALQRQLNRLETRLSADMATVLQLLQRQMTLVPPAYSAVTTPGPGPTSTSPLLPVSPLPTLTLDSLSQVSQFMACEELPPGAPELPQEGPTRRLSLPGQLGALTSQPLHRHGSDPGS
As for `Cc1cc(Br)ccc1NC(=O)CCSc1ccccc1`, the “hERG current change (%, negative = inhibition) at 10uM” value turned out to be 9.06%.

Turning to `COC(=O)c1sc(S(=O)(=O)NCc2cccs2)c(C(=O)OC)c1C`, the “hERG current change (%, negative = inhibition) at 10uM” value is -19.1%.

Consider `O=C(Cc1cccc2ccccc12)NNC(=O)Nc1cccc(Cl)c1`, for which the “hERG current change (%, negative = inhibition) at 10uM” value turned out to be 11.8%.

As for `O=C(Cc1ccc(Cl)cc1)Nc1ccc2c(c1)C(=O)NC2=O`, the “hERG current change (%, negative = inhibition) at 10uM” value is on record as -23%.

Take `O=C(c1ccccc1)N(Cc1ccc(F)cc1)Cc1nc2ccccc2c(=O)[nH]1`: the “hERG current change (%, negative = inhibition) at 10uM” value was -35%.

In the case of `O=C(COC(=O)c1cc[n+]([O-])cc1)NCc1ccccc1Cl`, the “hERG current change (%, negative = inhibition) at 10uM” value is -1.49%.

With `Cc1ccc(S(=O)(=O)C(CNC(=O)C(C)C)c2cccs2)cc1` (stereo not shown), the “hERG current change (%, negative = inhibition) at 10uM” value was 14.7%.

As for `CC(C(=O)N1CCc2ccccc21)N1CCc2ccccc2C1` (stereo not shown), the “hERG current change (%, negative = inhibition) at 10uM” value was -18.9%.

In the case of `CCS(=O)(=O)c1ccc2c(c1)NC(=O)C(CCCl)O2` (stereo not shown), the “hERG current change (%, negative = inhibition) at 10uM” value is -5.5%.

In the case of `CC(C)Cn1c(N)c(C(=O)COC(=O)COc2cccc(C(F)(F)F)c2)c(=O)n(C)c1=O`, the “hERG current change (%, negative = inhibition) at 10uM” value was -50.9%.

On to `O=c1ccc(-c2ccccc2)nn1Cc1ccc(F)cc1Cl`, for which the “hERG current change (%, negative = inhibition) at 10uM” value was found to be 19.6%.

As for `C=CCN(C(=O)CCC(=O)Nc1cc(C)on1)C(C(=O)NC1CCCC1)c1ccc(OC)cc1OC` (stereo not shown), the “hERG current change (%, negative = inhibition) at 10uM” value amounted to 0.0442%.

For `CCCCn1c(NCc2ccncc2)nc2ccccc21`, the “hERG current change (%, negative = inhibition) at 10uM” value is -48.2%.

As for `O=C(NCC1CCCO1)/C(=C\c1ccco1)NC(=O)c1ccccc1` (stereo not shown), the “hERG current change (%, negative = inhibition) at 10uM” value worked out at 10.3%.

`O=C(Nc1ccon1)C12CC3CC(C1)CC(n1cnc([N+](=O)[O-])n1)(C3)C2`: the “hERG current change (%, negative = inhibition) at 10uM” value is -50.5%.

Take `COC/C=C/C1=CC2=CC(=O)C(C)(OC(=O)c3cnc4ccccc4n3)C(=O)C2=CN1CCc1ccccn1` (stereo not shown): the “hERG current change (%, negative = inhibition) at 10uM” value was found to be 13.2%.

`CS(=O)(=O)N(CC(=O)NCCc1ccccc1)c1cccc([N+](=O)[O-])c1`: the “hERG current change (%, negative = inhibition) at 10uM” value is -14.7%.

For `Cc1ccc(S(=O)(=O)N(C)C)cc1NC(=O)CSc1nc2ccccc2[nH]1`, the “hERG current change (%, negative = inhibition) at 10uM” value was -29.4%.

As for `CN1CCN(c2ccc([N+](=O)[O-])c(N3CCCCC3)c2)CC1`, the “hERG current change (%, negative = inhibition) at 10uM” value is -3.78%.

For the compound `CN1CCN(CC(=O)N(C)c2nc(-c3ccccc3)cs2)CC1`, the “hERG current change (%, negative = inhibition) at 10uM” value is recorded as -33.8%.

As to `CC(=O)c1ccc(N2CCN(C(=O)/C=C/c3ccc(S(=O)(=O)NCc4ccco4)cc3)CC2)cc1`, the “hERG current change (%, negative = inhibition) at 10uM” value is recorded as -36.9%.

Take `O=C(NCC1(N2CCOCC2)CCCCC1)c1ccc(Cl)c(S(=O)(=O)NCc2ccco2)c1`: the “hERG current change (%, negative = inhibition) at 10uM” value is on record as -52.1%.

As to `COc1cc(CN2CCNC(=O)C2CC(=O)NCCc2ncccc2C)cc(OC)c1` (stereo not shown), the “hERG current change (%, negative = inhibition) at 10uM” value was found to be 8.78%.

With `Cl.O=C(CN1CCC(O)CC1)N1c2ccccc2C=Cc2ccccc21`, the “hERG current change (%, negative = inhibition) at 10uM” value is on record as -0.289%.

For `COc1cccc(-c2noc(CCCC(=O)NC3CCCC3)n2)c1`, the “hERG current change (%, negative = inhibition) at 10uM” value was found to be 2.42%.

Regarding `O=C(CN1CCN(Cc2ccccc2)CC1)NCCNc1ccc([N+](=O)[O-])cn1`, the “hERG current change (%, negative = inhibition) at 10uM” value is given as -40.5%.

For `C[C@H](NC(=O)C1CC(=O)N(c2ccc3c(c2)OCCO3)C1)C(=O)NC1CCCC1` (stereo partly shown), the “hERG current change (%, negative = inhibition) at 10uM” value is recorded as 12.8%.

Regarding `COc1ccc(CNC(=O)c2onc(C)c2Cl)cc1`, the “hERG current change (%, negative = inhibition) at 10uM” value is listed as 10.8%.

Turning to `O=c1[nH]c(-[n+]2ccccc2)c(/C=N/NC([S-])=Nc2ccccc2)s1`, the “hERG current change (%, negative = inhibition) at 10uM” value is 31.1%.

In the case of `COc1ccc(OC)c(C2CC(=O)Nc3n[nH]c(-c4ccccc4)c32)c1` (stereo not shown), the “hERG current change (%, negative = inhibition) at 10uM” value is reported as 9.86%.

Regarding `COc1ccc(CNC(=S)Nc2cc(C)ccc2C)cc1`, the “hERG current change (%, negative = inhibition) at 10uM” value was -5.62%.

In the case of `O=c1cc(-c2ccccc2)nc(SCCOc2ccccc2Cl)[nH]1`, the “hERG current change (%, negative = inhibition) at 10uM” value stood at 21.5%.

As to `CCN(CC)S(=O)(=O)c1cccc(-c2nnc(SC(C)C#N)n2Cc2ccccc2)c1` (stereo not shown), the “hERG current change (%, negative = inhibition) at 10uM” value is reported as -7.34%.

With `CCCCCc1nnc(NC(=O)CN2C(=O)C3CCCCC3C2=O)s1` (stereo not shown), the “hERG current change (%, negative = inhibition) at 10uM” value was -7.75%.

With `CN(CC(=O)Nc1c(Cl)cccc1Cl)C(=O)c1ccccc1-c1nc2ccccc2s1`, the “hERG current change (%, negative = inhibition) at 10uM” value is listed as -15.1%.

Take `Cl.c1ccc2c(c1)CC(N1CCCCC1)c1ccccc1S2` (stereo not shown): the “hERG current change (%, negative = inhibition) at 10uM” value came to 9.15%.

On to `Cc1cc(C(=O)CSc2nncs2)c(C)n1-c1c(C)n(C)n(-c2ccccc2)c1=O`, for which the “hERG current change (%, negative = inhibition) at 10uM” value is recorded as 10.7%.

As to `CCCCCc1ccc(-c2ccc(/C=C/C(=O)O)cc2)nc1`, the “hERG current change (%, negative = inhibition) at 10uM” value was 0.61%.

Turning to `C=CC[N+]1(C)C2CCC1CC(O)C2.[Br-]` (stereo not shown), the “hERG current change (%, negative = inhibition) at 10uM” value was found to be 2.77%.

`CSc1nsc2nc(=O)c(/C=C3\C(C)=Nc4ccc(C)cc43)c(N)n12`: the “hERG current change (%, negative = inhibition) at 10uM” value amounted to 18.1%.

`CC1CCN(Cc2ccc(-c3nnn(CC(=O)NC4CCCCC4)n3)cc2)CC1`: the “hERG current change (%, negative = inhibition) at 10uM” value was -6.52%.

As to `CCOc1ccc(N(C(C)=O)C2C=CS(=O)(=O)C2)cc1` (stereo not shown), the “hERG current change (%, negative = inhibition) at 10uM” value was -1.74%.

Consider `CCN(CC(=O)NCc1cccs1)C(=O)c1ccc(S(=O)(=O)Nc2ccccc2F)cc1`, for which the “hERG current change (%, negative = inhibition) at 10uM” value is recorded as -21.4%.
